In all, about 310,000 compounds went through this assay and about 14,000 (4.5%) showed an effect of 50% or more. The effect is printed as a negative number. The list shows a part of the results.
These compounds were tested against human ether-à-go-go-related gene (hERG) potassium channel (human, UniProt Q12809) (assay: primary screen, population patch clamp on CHO cells stably expressing hERG).
human ether-à-go-go-related gene (hERG) potassium channel, sequence (Q12809 whole entry, looked up): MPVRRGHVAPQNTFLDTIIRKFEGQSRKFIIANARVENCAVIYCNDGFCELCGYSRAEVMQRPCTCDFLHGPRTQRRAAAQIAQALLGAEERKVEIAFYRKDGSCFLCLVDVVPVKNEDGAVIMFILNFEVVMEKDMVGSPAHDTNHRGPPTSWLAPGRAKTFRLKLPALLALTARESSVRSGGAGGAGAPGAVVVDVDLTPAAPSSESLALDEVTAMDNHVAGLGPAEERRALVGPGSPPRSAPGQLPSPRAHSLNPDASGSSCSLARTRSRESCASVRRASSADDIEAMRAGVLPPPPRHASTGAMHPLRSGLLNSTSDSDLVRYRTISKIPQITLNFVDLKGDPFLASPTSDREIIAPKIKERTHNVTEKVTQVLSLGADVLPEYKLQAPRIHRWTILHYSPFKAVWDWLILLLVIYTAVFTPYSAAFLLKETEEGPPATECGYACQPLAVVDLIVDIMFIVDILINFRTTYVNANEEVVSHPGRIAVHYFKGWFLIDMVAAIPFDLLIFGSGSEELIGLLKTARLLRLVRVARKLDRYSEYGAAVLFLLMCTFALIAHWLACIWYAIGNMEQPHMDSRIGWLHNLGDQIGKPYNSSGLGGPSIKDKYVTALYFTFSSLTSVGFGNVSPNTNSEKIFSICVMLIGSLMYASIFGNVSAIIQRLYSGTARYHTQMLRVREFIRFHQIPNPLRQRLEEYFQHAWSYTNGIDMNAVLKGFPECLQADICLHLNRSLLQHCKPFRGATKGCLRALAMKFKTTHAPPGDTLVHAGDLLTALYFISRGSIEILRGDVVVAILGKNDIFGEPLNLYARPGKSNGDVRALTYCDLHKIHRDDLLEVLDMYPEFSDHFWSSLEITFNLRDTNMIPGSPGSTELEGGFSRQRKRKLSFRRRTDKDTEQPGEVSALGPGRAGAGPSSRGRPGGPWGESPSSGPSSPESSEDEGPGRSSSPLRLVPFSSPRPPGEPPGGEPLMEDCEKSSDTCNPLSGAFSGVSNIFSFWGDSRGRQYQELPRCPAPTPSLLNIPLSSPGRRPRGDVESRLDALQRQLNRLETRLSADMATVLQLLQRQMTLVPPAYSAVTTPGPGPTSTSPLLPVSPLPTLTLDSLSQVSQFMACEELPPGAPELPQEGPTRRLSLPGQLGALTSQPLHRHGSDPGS
In the case of `COc1cccc(-c2cc(C(=O)N3CCOCC3)no2)c1`, the “hERG current change (%, negative = inhibition) at 10uM” value is reported as 18.1%.
For `COc1ccc(CNc2nc(NCc3ccc(OC)cc3)n(C(=O)c3ccncc3)n2)cc1`, the “hERG current change (%, negative = inhibition) at 10uM” value was 3.83%.
For `O=C(CN1C(=O)NC2(CCCC2)C1=O)Nc1cc(S(=O)(=O)N2CCOCC2)ccc1OCC(F)(F)F`, the “hERG current change (%, negative = inhibition) at 10uM” value was 6.58%.
In the case of `CN(C(=O)c1cn2ccccc2n1)c1c(N)n(Cc2ccccc2)c(=O)[nH]c1=O`, the “hERG current change (%, negative = inhibition) at 10uM” value is reported as 15.6%.
For `Cc1ccc2cc(CCNS(=O)(=O)c3ccc(F)cc3)c(=O)[nH]c2c1`, the “hERG current change (%, negative = inhibition) at 10uM” value was -14.6%.
For `CC(=O)Nc1ccc(NC(=O)c2cc(=O)c3cc(C)c(C)cc3o2)cc1`, the “hERG current change (%, negative = inhibition) at 10uM” value was 24.6%.
In the case of `CCOc1ccc(CN(C)C(=O)CN2C(=O)NC3(CCCc4ccccc43)C2=O)cc1` (centres unmarked), the “hERG current change (%, negative = inhibition) at 10uM” value is reported as -28%.
In the case of `CN(CC(=O)Nc1ccc(Cl)c(Cl)c1)C1CCCCC1.O=C(O)C(=O)O`, the “hERG current change (%, negative = inhibition) at 10uM” value is reported as -7.28%.
For `C(=N\N=C\c1cccs1)/c1cccs1`, the “hERG current change (%, negative = inhibition) at 10uM” value was -2.57%.
With `CN(CCOC(=O)CN1C(=O)c2ccccc2C1=O)C1=NS(=O)(=O)c2ccccc21` the “hERG current change (%, negative = inhibition) at 10uM” value was 7.28%.
`CC(C)C1CCC(C(=O)N[C@H](Cc2ccccc2)C(=O)O)CC1` (some centres unmarked) was tested, and the “hERG current change (%, negative = inhibition) at 10uM” value was -12.6%.
In the case of `CCCS(=O)(=O)c1nc(S(=O)(=O)c2ccc(C)cc2)c(NCc2ccco2)s1`, the “hERG current change (%, negative = inhibition) at 10uM” value is reported as -25.6%.
With `Cc1ccc(-c2nc(CS(=O)(=O)CC(=O)N3CCN(C)CC3)c(C)o2)cc1` the “hERG current change (%, negative = inhibition) at 10uM” value was -6.81%.
In the case of `C[C@H]1[C@H](NC(=O)C(=NOC(C)(C)C(=O)O)c2csc(N)n2)C(=O)N1S(=O)(=O)O`, the “hERG current change (%, negative = inhibition) at 10uM” value is reported as 15.4%.
`Cc1ccc(OCCN2CCN(C(=O)CCC(=O)Nc3nnc(C)s3)CC2)cc1` was tested, and the “hERG current change (%, negative = inhibition) at 10uM” value was -7.69%.
With `CSc1cccc(NC(=O)C2CCCN(c3ncnc4c3nc3n4CCCCC3)C2)c1` (centres unmarked) the “hERG current change (%, negative = inhibition) at 10uM” value was -47.9%.
In the case of `CC(NC(=O)c1ccccc1)c1nnc(SCC(=O)NC2CCCC2)n1C` (centres unmarked), the “hERG current change (%, negative = inhibition) at 10uM” value is reported as 13.4%.
For `Cc1ccc(NC(=O)CNc2cccc(S(=O)(=O)N3CCCCC3)c2)cc1F`, the “hERG current change (%, negative = inhibition) at 10uM” value was -9.76%.
With `CC(CC(=O)N1CCN(c2ccccc2)CC1)c1ccccc1` (centres unmarked) the “hERG current change (%, negative = inhibition) at 10uM” value was 1.87%.
With `CCOC(=O)n1c(=O)oc2cc(S(=O)(=O)N3CCOCC3)ccc21` the “hERG current change (%, negative = inhibition) at 10uM” value was -23.4%.
In the case of `Cc1nc(NC(=O)/C=C/c2ccccc2)sc1C(=O)NCCO`, the “hERG current change (%, negative = inhibition) at 10uM” value is reported as 26.4%.
In the case of `Cc1ccc(S(=O)(=O)N2CCCC2C(=O)NCc2ccco2)cc1` (centres unmarked), the “hERG current change (%, negative = inhibition) at 10uM” value is reported as 4.02%.
`Cc1cccc(C)c1OCC(=O)NNC(=O)Nc1ccc(Cl)cc1` was tested, and the “hERG current change (%, negative = inhibition) at 10uM” value was -2.48%.
For `COc1cccc(-c2c(C#N)c(N)nc3c2c(C)nn3-c2ccccc2)c1O`, the “hERG current change (%, negative = inhibition) at 10uM” value was -28.1%.
`CNC(=S)NNC(=O)c1cccc(N(C)C)c1` was tested, and the “hERG current change (%, negative = inhibition) at 10uM” value was 24.1%.
With `COc1ccc(Cl)cc1NC(=O)C(C)Sc1nncn1C` (centres unmarked) the “hERG current change (%, negative = inhibition) at 10uM” value was 0.256%.
With `Cn1cc(CCC(=O)NCCCc2ccccc2)c2ccccc21` the “hERG current change (%, negative = inhibition) at 10uM” value was -5.31%.
With `CC(NC(=O)c1ccc(CS(C)(=O)=O)cc1)C1CC2CCC1C2` (centres unmarked) the “hERG current change (%, negative = inhibition) at 10uM” value was 3.24%.
In the case of `CC(C)NC(=O)c1cc2n(n1)C(C(F)(F)F)CC(c1ccco1)N2` (centres unmarked), the “hERG current change (%, negative = inhibition) at 10uM” value is reported as 1.18%.
`CSc1ccc(S(=O)(=O)NCC(=O)OCC(=O)N(C)CC(=O)Nc2ccccc2Cl)cc1[N+](=O)[O-]` was tested, and the “hERG current change (%, negative = inhibition) at 10uM” value was -10.4%.
In the case of `CCOC(=O)C1CCN(C(=O)N(C)C)CC1`, the “hERG current change (%, negative = inhibition) at 10uM” value is reported as 17.2%.
With `CCC(=O)OCCNc1nc(-c2ccccc2)nc2ccccc12.Cl` the “hERG current change (%, negative = inhibition) at 10uM” value was 3.33%.
For `COc1cccc(S(=O)(=O)Nc2cccc(C(=O)N3CCCC3)c2)c1`, the “hERG current change (%, negative = inhibition) at 10uM” value was 1.18%.
For `COc1cccc(NC(=O)CSc2c3c(nc4ccccc24)CCCC3)c1`, the “hERG current change (%, negative = inhibition) at 10uM” value was -8.68%.
With `O=C(NCCN1CCOCC1)/C(=C\c1ccccc1F)NC(=O)c1ccccc1` the “hERG current change (%, negative = inhibition) at 10uM” value was -26.5%.
For `O=C(N[C@@H](Cc1ccc(O)cc1)C(=O)O)C(c1ccccc1)c1ccccc1`, the “hERG current change (%, negative = inhibition) at 10uM” value was 9.42%.
With `O=C(Nc1nccs1)C1CCCN(S(=O)(=O)c2cccc3cccnc23)C1` (centres unmarked) the “hERG current change (%, negative = inhibition) at 10uM” value was -3.72%.
With `CC(C)C(c1nnnn1CCc1ccccc1)N1CCSCC1` (centres unmarked) the “hERG current change (%, negative = inhibition) at 10uM” value was -5.49%.
In the case of `COc1cc(OC)nc(Oc2ccccc2C(=O)Oc2ccccc2Cl)n1`, the “hERG current change (%, negative = inhibition) at 10uM” value is reported as -5.8%.
`CC(=O)Nc1sc(C)c(C)c1C(=O)OC1CCOC1=O` (centres unmarked) was tested, and the “hERG current change (%, negative = inhibition) at 10uM” value was -9.14%.
`CCCCn1c(=O)[nH]c(=O)c2c1nc(-c1ccccc1OC(F)F)n2C` was tested, and the “hERG current change (%, negative = inhibition) at 10uM” value was -10.8%.
In the case of `CCn1c2ccccc2c2cc(CNCc3ccc(OC)cc3OC)ccc21.O=C(O)C(=O)O`, the “hERG current change (%, negative = inhibition) at 10uM” value is reported as -76.2%.
`CCOc1cc(C)c(S(=O)(=O)Nc2ccc(Cl)cn2)cc1C` was tested, and the “hERG current change (%, negative = inhibition) at 10uM” value was 19.8%.
`CCc1ccc(NS(=O)(=O)c2ccc3oc(=O)ccc3c2)cc1` was tested, and the “hERG current change (%, negative = inhibition) at 10uM” value was -1.91%.
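Note: peak tail current of the secondary pulse compared with the same well before compound.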
